Results taken from the antibiotic and cytotoxicity screens of Wong et al. (2023).
This is one part of the list.

What was measured:
[1] = system: HSkMC (human skeletal muscle cells); assay: cytotoxicity call (relative viability < 0.9); conditions: 10 µM
[2] = system: HepG2; assay: cytotoxicity call (relative viability < 0.9); conditions: 10 µM
[3] = system: S. aureus RN4220; assay: growth inhibition call (relative growth <= 0.2); conditions: 50 µM

SMILES	cytotoxicity call [1]	cytotoxicity call [2]	growth inhibition call [3]
COCC(=O)N(C)C[C@@H]1Oc2cc(C#Cc3ccccc3)ccc2S(=O)(=O)N([C@@H](C)CO)C[C@H]1C	inactive	inactive	inactive
C[C@H]1CCCCO[C@H](CN(C)S(=O)(=O)c2cn(C)cn2)[C@@H](C)CN([C@@H](C)CO)C(=O)c2cc(NC(=O)Nc3cccc4ccccc34)ccc2O1	inactive	inactive	inactive
C[C@@H]1CCCCO[C@@H](CN(C)S(=O)(=O)c2ccc(Cl)cc2)[C@H](C)CN([C@H](C)CO)C(=O)c2cc(NS(=O)(=O)c3ccccc3)ccc2O1	inactive	active	inactive
NCC[C@@H]1CC[C@@H](NC(=O)C2CC2)[C@H](CO)O1	inactive	inactive	inactive
C[C@@H]1CN([C@H](C)CO)C(=O)c2cc(NC(=O)c3ccccc3)ccc2O[C@@H](C)CCCCO[C@H]1CN(C)S(=O)(=O)c1cccs1	inactive	active	inactive
Cc1ccccc1-c1ccc2c(c1)O[C@@H](CN(C)C(=O)Nc1ccc(C(F)(F)F)cc1)[C@H](C)CN([C@@H](C)CO)S2(=O)=O	inactive	inactive	inactive
C[C@@H]1CN([C@H](C)CO)C(=O)c2cc(NC(=O)Nc3ccc(F)cc3)ccc2O[C@@H](C)CCCCO[C@@H]1CN(C)Cc1ccccc1	inactive	inactive	inactive
OC[C@H]1O[C@H](O[C@]2(CCl)O[C@H](CCl)[C@@H](O)[C@@H]2O)[C@H](O)[C@@H](O)[C@H]1Cl	inactive	inactive	inactive
COCC#Cc1cnc2c(c1)C(=O)N([C@@H](C)CO)C[C@H](C)[C@H](CN(C)S(=O)(=O)c1cccc(OC)c1)O2	inactive	inactive	inactive
